The supplement of paper PMC11417369
± gives the standard deviation of the averaged measurements. The list shows a part of the results.

System: PfAP2-G AP2 domain (GST-tagged)
Test: gcPBM binding intensity (ln(normalized median fluorescence intensity)); higher = stronger DNA binding
How it was run: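 For binding intensity, the highest Masliner-normalised natural-log median intensity across replicate spots of either probe orientation was taken. Protein bound to the array was stained with Alexa488 anti-GST antibody and scanned at 488 nm. The protein, GST-tagged P. falciparum DNA-binding domains from E. coli at about 25 μg on average, had been applied for 1 h to an Agilent 4 × 180k array of primer-extended double-stranded 36-bp intergenic genomic probes and negative controls.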

Sequence | gcPBM binding intensity (ln)
AATGCTTTTCATCAAGTGCAATATGTTAATACAAAC [GTGCAC_site9619] | 10.1 ± 0.24
ATTTACATTATATTGAATATGCCATATTATATTATT [CACACA_negctrl_site811] | 9.735 ± 0.021
TCTAACATATTTTTAATACACACTTAAAAAAGTACT [CACACA_site1366] | 10.9 ± 0.49
ATAGACTTTTGTTTTGTTTTATTTTATTGTATTGTA [CACACA_negctrl_site618] | 9.76 ± 0.18
ATATTATATTGGATGTTGCACTTAACAAAAGGATAT [GTGCAC_site9478] | 10.2 ± 0.23
TATAAAAGTAGACACACACACATATAAATATAAATA [CACACA_site6567] | 10.3 ± 0.54
TCTATATCAACCAGTTGTACTGAATTTACTATATTT [XGTACX_site4205] | 11 ± 0.67
GTAGACTGAAACCACACACACATATATAAATATATT [CACACA_site6433] | 10.2 ± 0.16
AAAAAAAAAAATGGTTGTACTTTTTTTATTTGGTGC [XGTACX_site4498] | 11.6 ± 1
TGTATGTATAATTGAGTGCACAGAAAAAAAAAAGAA | 10.6 ± 0.54
TAATATATATATATTACACACACGTATTATTAAATA [CACACA_site432] | 10.4 ± 0.21
AGAAAAAAAAAAAAAAAACACACGGTACATTCAAAG [CACACA_site2] | 10.5 ± 0.2
TAATTTTCATATTTCTGTACATATATTATAAATATA [XGTACX_site3480] | 11 ± 0.69
AATAAAAAAGAATATACACACATAAATATAAAATAT [CACACA_site683] | 9.82 ± 0.22
ATATATATATATATGTGTACTAATAAGGTTAAATAA [XGTACX_site1535] | 11.3 ± 0.76
AAATATATATTTCTTAGTACATATGTATTTTTTTTT [XGTACX_site938] | 10.8 ± 0.49
AATTAAAAAGAAAAAAGTACATATTTTTTTAAAAAA [XGTACX_site7384] | 11.4 ± 0.61
TTTGACAAATTATTGTGTACACAATATTATTATATA [XGTACX_site8320] | 11.7 ± 1
ACAAAATGTAGATATTGTACATATTGTAGATATTGT [XGTACX_site7619] | 10.9 ± 0.53
ACCTATATAAGTTATACACACAAATATAGATATATA [CACACA_site7356] | 10 ± 0.16
TAATATTAATCCTAGTGTACATTAATTTATATGTAT [XGTACX_site3583] | 11.3 ± 0.72
ATTATATATATATAAACACACAAATATTTTTATATA [CACACA_site5005] | 9.52 ± 0.33
TTTATATGTATTAAGTGTACACATATAATGTGTTTG [XGTACX_site6629] | 11.5 ± 0.86
TATAAGAGGATATATACACACAAAAATATGTACAGT [CACACA_site6885] | 11.5 ± 0.92
TTATTTTTTTTTTATTGTACTAGGAAAATTTCGATA [XGTACX_site702] | 10.9 ± 0.64
